Data: the supplement of paper PMC11741623
The list shows a part of the results. Interaction screen of human proteins with wild-type SARS-CoV-2 proteins by split-DHFR complementation in yeast, 1 µg/mL methotrexate. Value = fitness of the pair (three or more lineages) minus that of the viral protein without a human partner, on a scale set by negative (0) and fused positive (1) controls, mean of up to three cultures; higher = more likely to interact. Active = false discovery rate below 0.05 (one-sided t-test) in at least one culture. Nearly all pairs are not hits, and differences among them are mostly noise (correlation between cultures about 0.3); most hits were seen in one culture only. Human sequences are the Swiss-Prot entries looked up by gene name; the clone may be another isoform. NSP2 values were corrected by the authors for a growth advantage. Listed are human proteins with a hit and a random twelfth of the others.

B1: CSNK1A1L, Q8N752 (protein)
chain: MTNNSGSKAELVVGGKYKLVRKIGSGSFGDVYLGITTTNGEDVAVKLESQKVKHPQLLYESKLYTILQGGVGIPHMHWYGQEKDNNVLVMDLLGPSLEDLFNFCSRRFTMKTVLMLADQMISRIEYVHTKNFLHRDIKPDNFLMGTGRHCNKLFLIDFGLAKKYRDNRTRQHIPYREDKHLIGTVRYASINAHLGIEQSRRDDMESLGYVFMYFNRTSLPWQGLRAMTKKQKYEKISEKKMSTPVEVLCKGFPAEFAMYLNYCRGLRFEEVPDYMYLRQLFRILFRTLNHQYDYTFDWTMLKQKAAQQAASSSGQGQQAQTQTGKQTEKNKNNVKDN
B2: ATG5, Q9H1Y0 (protein)
chain: MTDDKDVLRDVWFGRIPTCFTLYQDEITEREAEPYYLLLPRVSYLTLVTDKVKKHFQKVMRQEDISEIWFEYEGTPLKWHYPIGLLFDLLASSSALPWNITVHFKSFPEKDLLHCPSKDAIEAHFMSCMKEADALKHKSQVINEMQKKDHKQLWMGLQNDRFDQFWAINRKLMEYPAEENGFRYIPFRIYQTTTERPFIQKLFRPVAADGQLHTLGDLLKEVCPSAIDPEDGEKKNQVMIHGIEPMLETPLQWLSEHLSYPDNFLHISIIPQPTD
B3: TTYH1, Q9H313 (protein)
chain: MGAPPGYRPSAWVHLLHQLPRADFQLRPVPSVFAPQEQEYQQALLLVAALAGLGLGLSLIFIAVYLIRFCCCRPPEPPGSKIPSPGGGCVTWSCIVALLAGCTGIGIGFYGNSETSDGVSQLSSALLHANHTLSTIDHLVLETVERLGEAVRTELTTLEEVLEPRTELVAAARGARRQAEAAAQQLQGLAFWQGVPLSPLQVAENVSFVEEYRWLAYVLLLLLELLVCLFTLLGLAKQSKWLVIVMTVMSLLVLVLSWGSMGLEAATAVGLSDFCSNPDPYVLNLTQEETGLSSDILSYYLLCNRAVSNPFQQRLTLSQRALANIHSQLLGLEREAVPQFPSAQKPLLSLEETLNVTEGNFHQLVALLHCRSLHKDYGAALRGLCEDALEGLLFLLLFSLLSAGALATALCSLPRAWALFPPSDDYDDTDDDDPFNPQESKRFVQWQSSI
B4: EPSTI1, Q96J88 (protein)
chain: MNTRNRVVNSGLGASPASRPTRDPQDPSGRQGELSPVEDQREGLEAAPKGPSRESVVHAGQRRTSAYTLIAPNINRRNEIQRIAEQELANLEKWKEQNRAKPVHLVPRRLGGSQSETEVRQKQQLQLMQSKYKQKLKREESVRIKKEAEEAELQKMKAIQREKSNKLEEKKRLQENLRREAFREHQQYKTAEFLSKLNTESPDRSACQSAVCGPQSSTWKLPILPRDHSWARSWAYRDSLKAEENRKLQKMKDEQHQKSELLELKRQQQEQERAKIHQTEHRRVNNAFLDRLQGKSQPGGLEQSGGCWNMNSGNSWGI

What was measured:
Experiment in all cases: yeast fitness gain over the viral ORF with no human partner (scaled fitness); higher = more likely to interact
SARS-CoV-2 M = biological target: SARS-CoV-2 M
Description: (§1)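 Split mouse DHFR complementation in pooled diploid yeast: human ORFeome clones carry one fragment and viral ORFs the other; barcoded lineages compete in 1 µg/mL methotrexate and fitness is read by barcode sequencing in up to three cultures.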

SARS-CoV-2 N = biological target: SARS-CoV-2 N
Description: as §1

SARS-CoV-2 NSP10 = biological target: SARS-CoV-2 NSP10
Description: as §1

SARS-CoV-2 NSP12 = biological target: SARS-CoV-2 NSP12
Description: as §1

SARS-CoV-2 NSP13 = biological target: SARS-CoV-2 NSP13
Description: as §1

SARS-CoV-2 NSP2 = biological target: SARS-CoV-2 NSP2
Description: as §1

SARS-CoV-2 NSP5 = biological target: SARS-CoV-2 NSP5
Description: as §1

SARS-CoV-2 NSP6 = biological target: SARS-CoV-2 NSP6
Description: as §1

SARS-CoV-2 NSP8 = biological target: SARS-CoV-2 NSP8
Description: as §1

SARS-CoV-2 ORF10 = biological target: SARS-CoV-2 ORF10
Description: as §1

SARS-CoV-2 ORF3A = biological target: SARS-CoV-2 ORF3A
Description: as §1

SARS-CoV-2 ORF3B = biological target: SARS-CoV-2 ORF3B
Description: as §1

SARS-CoV-2 ORF6 = biological target: SARS-CoV-2 ORF6
Description: as §1

SARS-CoV-2 ORF8 = biological target: SARS-CoV-2 ORF8
Description: as §1

SARS-CoV-2 ORF9B = biological target: SARS-CoV-2 ORF9B
Description: as §1

[1] = biological target: SARS-CoV-2 ORF9Bwu (the 73-codon ORF)
Description: as §1

SARS-CoV-2 S = biological target: SARS-CoV-2 S
Description: as §1

SARS-CoV-2 NSP1 = biological target: SARS-CoV-2 NSP1
Description: as §1

SARS-CoV-2 NSP16 = biological target: SARS-CoV-2 NSP16
Description: as §1

SARS-CoV-2 NSP7 = biological target: SARS-CoV-2 NSP7
Description: as §1

SARS-CoV-2 ORF7A = biological target: SARS-CoV-2 ORF7A
Description: as §1

SARS-CoV-2 ORF7B = biological target: SARS-CoV-2 ORF7B
Description: as §1

SARS-CoV-2 NSP14 = biological target: SARS-CoV-2 NSP14
Description: as §1

SARS-CoV-2 NSP15 = biological target: SARS-CoV-2 NSP15
Description: as §1

SARS-CoV-2 NSP4 = biological target: SARS-CoV-2 NSP4
Description: as §1

Binder | yeast fitness gain (SARS-CoV-2 M) | yeast fitness gain (SARS-CoV-2 N) | yeast fitness gain (SARS-CoV-2 NSP10) | yeast fitness gain (SARS-CoV-2 NSP12) | yeast fitness gain (SARS-CoV-2 NSP13) | yeast fitness gain (SARS-CoV-2 NSP2) | yeast fitness gain (SARS-CoV-2 NSP5) | yeast fitness gain (SARS-CoV-2 NSP6) | yeast fitness gain (SARS-CoV-2 NSP8) | yeast fitness gain (SARS-CoV-2 ORF10) | yeast fitness gain (SARS-CoV-2 ORF3A) | yeast fitness gain (SARS-CoV-2 ORF3B) | yeast fitness gain (SARS-CoV-2 ORF6) | yeast fitness gain (SARS-CoV-2 ORF8) | yeast fitness gain (SARS-CoV-2 ORF9B) | yeast fitness gain [1] | yeast fitness gain (SARS-CoV-2 S) | yeast fitness gain (SARS-CoV-2 NSP1) | yeast fitness gain (SARS-CoV-2 NSP16) | yeast fitness gain (SARS-CoV-2 NSP7) | yeast fitness gain (SARS-CoV-2 ORF7A) | yeast fitness gain (SARS-CoV-2 ORF7B) | yeast fitness gain (SARS-CoV-2 NSP14) | yeast fitness gain (SARS-CoV-2 NSP15) | yeast fitness gain (SARS-CoV-2 NSP4)
B1 | inactive: 0.021 | inactive: -0.0432 | inactive: -0.105 | inactive: 0.0206 | inactive: 0.0717 | inactive: -0.171 | inactive: -0.0337 | inactive: -0.0301 | inactive: -0.0899 | inactive: 0.0485 | inactive: -0.284 | inactive: -0.0421 | inactive: 0.0619 | inactive: 0.0649 | inactive: -0.133 | inactive: 0.131 | inactive: -0.034 | – | – | – | – | – | – | – | –
B2 | inactive: -0.0454 | – | inactive: -0.0723 | inactive: -0.0603 | inactive: -0.0469 | inactive: -0.045 | inactive: -0.167 | inactive: 0.0333 | inactive: -0.0809 | inactive: 0.0316 | inactive: -0.0326 | inactive: -0.03 | inactive: -0.0646 | inactive: 0.0171 | inactive: -0.027 | – | inactive: -0.0632 | inactive: -0.0219 | inactive: -0.0499 | inactive: -0.127 | inactive: 0.00795 | inactive: 0.144 | – | – | –
B3 | inactive: -0.00692 | – | inactive: 0.0177 | inactive: 0.11 | inactive: 0.0859 | active: 0.568 | inactive: 0.0132 | inactive: 0.0645 | – | inactive: 0.0924 | inactive: 0.0109 | inactive: 0.00549 | inactive: 0.0604 | inactive: 0.0182 | inactive: 0.0405 | inactive: -0.103 | inactive: -0.207 | – | inactive: -0.0369 | inactive: 0.191 | inactive: -0.167 | – | inactive: 0.143 | inactive: 0.114 | inactive: -0.057
B4 | inactive: -0.12 | – | inactive: -0.0619 | inactive: -0.263 | inactive: -0.043 | inactive: -0.251 | inactive: -0.112 | inactive: 0.00969 | inactive: -0.047 | inactive: 0.0106 | – | inactive: -0.0704 | inactive: 0.0117 | inactive: 0.0586 | inactive: -0.103 | inactive: -0.0428 | inactive: -0.0254 | inactive: 0.136 | inactive: -0.0673 | inactive: -0.171 | inactive: -0.0891 | inactive: 0.0843 | – | inactive: -0.0403 | –
